Laboratory results as given in the supplement of paper PMC9446081.
The campaign covered roughly 39,000 compounds. About 220 (0.56%) showed activity. Some of the results follow.
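Further: static incubation at 37 °C against the wild-type strain, values averaged over two biological replicates.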

What follows are compounds tested on Escherichia coli K-12 BW25113 (assay: relative growth (OD600 normalised to plate interquartile mean) (fraction); higher = less growth inhibition, active = 0.2 or less). Conditions: 50 µM; LB; incubation time: overnight (16-24 h).
In the case of `COCC(=O)N1C[C@H](C)[C@@H](OC)CN(C)C(=O)c2ccc(NC(=O)Nc3cccc(F)c3)cc2OC[C@@H]1C`, the relative growth is reported as inactive: 1.04. With `C[C@H](CO)N1C[C@H](C)[C@H](CN(C)C(=O)Nc2ccccc2)Oc2c(NC(=O)Nc3cccc4ccccc34)cccc2C1=O` the relative growth was inactive: 1.01. With `C[C@@H]1CCCCO[C@H](CN(C)Cc2ccc(C(=O)O)cc2)[C@@H](C)CN([C@H](C)CO)C(=O)c2cc(NC(=O)c3ccccc3)ccc2O1` the relative growth was inactive: 1.02. `COc1ccc(NC(=O)N(C)C[C@@H]2Oc3ccc(NS(C)(=O)=O)cc3CC(=O)N([C@H](C)CO)C[C@H]2C)cc1` was tested, and the relative growth was inactive: 0.997. In the case of `Cc1ccc(S(=O)(=O)Nc2ccc3c(c2)CC(=O)N([C@H](C)CO)C[C@H](C)[C@@H](CN(C)S(C)(=O)=O)O3)cc1`, the relative growth is reported as inactive: 0.983. With `CCC(=O)N(C)C[C@H]1Oc2ncc(C#C[C@@H](C)O)cc2C(=O)N([C@@H](C)CO)C[C@@H]1C` the relative growth was inactive: 0.991. In the case of `CCNC(=O)C[C@@H]1CC[C@@H]2[C@H](COC[C@@H](O)CN2C(=O)Nc2c(C)noc2C)O1`, the relative growth is reported as inactive: 1.02. `CC(C)NC(=O)N(C)C[C@@H]1OCCCC[C@@H](C)Oc2ccc(NC(=O)Nc3cccc4ccccc34)cc2C(=O)N([C@@H](C)CO)C[C@@H]1C` was tested, and the relative growth was inactive: 1.01. For `CC(C)NC(=O)Nc1cccc2c1O[C@@H](CN(C)S(=O)(=O)c1ccc(Cl)cc1)[C@H](C)CN([C@H](C)CO)C2=O`, the relative growth was inactive: 1. `OC[C@H]1CC[C@@H]2O[C@H](CCc3ccc(C#Cc4ccccc4)cc3)[C@H](n3cc(-c4ccccc4)nn3)C[C@@H]2O1` was tested, and the relative growth was inactive: 1.05. In the case of `C[C@@H]1CCCCO[C@@H](CN(C)Cc2ccc(Cl)c(Cl)c2)[C@H](C)CN([C@@H](C)CO)C(=O)c2cc(N(C)C)ccc2O1`, the relative growth is reported as inactive: 1. `C[C@H]1CN([C@@H](C)CO)C(=O)c2ccccc2-c2ccccc2CO[C@H]1CN(C)C(=O)Nc1ccc(F)cc1` was tested, and the relative growth was inactive: 0.973. For `C[C@@H]1CN([C@H](C)CO)C(=O)c2cccc(NS(=O)(=O)c3ccccc3)c2O[C@@H]1CN(C)S(C)(=O)=O`, the relative growth was inactive: 1.01. In the case of `COc1cccc(NC(=O)N(C)C[C@H]2Oc3ncc(C#Cc4ccncc4)cc3C(=O)N([C@H](C)CO)C[C@H]2C)c1`, the relative growth is reported as inactive: 1. In the case of `NC(=O)Cn1c(=O)c2ccccc2n(CC(N)=O)c1=O`, the relative growth is reported as inactive: 1.02. For `C[C@H]1CN([C@@H](C)CO)C(=O)c2cccc(NC(=O)c3nc4ccccc4s3)c2O[C@H]1CN(C)CC1CCCCC1`, the relative growth was inactive: 0.994. For `C[C@@H]1CCCCO[C@@H](CN(C)C(=O)Nc2ccc(F)cc2)[C@H](C)CN([C@H](C)CO)C(=O)c2cc(NC(=O)Nc3ccc(F)cc3)ccc2O1`, the relative growth was inactive: 1.04. `Cc1ccc(S(=O)(=O)Nc2ccc3c(c2)C(=O)N([C@H](C)CO)C[C@@H](C)[C@H](CN(C)C(=O)Nc2ccccc2)OCCCC[C@H](C)O3)cc1` was tested, and the relative growth was inactive: 1.01. With `C[C@H]1CN([C@@H](C)CO)C(=O)Cc2cc(NS(=O)(=O)c3ccc(F)cc3)ccc2O[C@H]1CN(C)S(C)(=O)=O` the relative growth was inactive: 0.995. With `C[C@@H]1CN([C@@H](C)CO)C(=O)c2cccc(NS(=O)(=O)c3ccc(F)cc3)c2O[C@H]1CN(C)Cc1ccc(Oc2ccccc2)cc1` the relative growth was inactive: 1.02. `C[C@@H]1CN([C@@H](C)CO)C(=O)Cc2cc(NS(C)(=O)=O)ccc2O[C@H]1CN(C)C(=O)Nc1ccc2c(c1)OCO2` was tested, and the relative growth was inactive: 0.999. In the case of `O=C(C[C@@H]1C=C[C@@H](NS(=O)(=O)c2ccc(F)cc2)[C@@H](CO)O1)NCCN1CCCCC1`, the relative growth is reported as inactive: 0.931. In the case of `C[C@@H]1CN([C@@H](C)CO)C(=O)CCCn2cc(nn2)CO[C@H]1CN(C)C(=O)Nc1cccc(Oc2ccccn2)c1`, the relative growth is reported as inactive: 0.979. `C[C@@H]1CCCCO[C@H](CN(C)C(=O)Cc2ccccc2)[C@H](C)CN([C@H](C)CO)C(=O)c2cc(NC(=O)Nc3ccccc3)ccc2O1` was tested, and the relative growth was inactive: 1.04. For `CCc1cc(=O)oc2cc(O[C@@H](C)C(=O)N[C@@H](CCCNC(=N)N)C(=O)O)ccc12`, the relative growth was inactive: 0.987. With `C[C@H](CO)N1C[C@H](C)[C@H](CN(C)S(C)(=O)=O)Oc2ncc(C#Cc3ccc(C(F)(F)F)cc3)cc2C1=O` the relative growth was inactive: 0.966. In the case of `C[C@H](CO)N1C[C@H](C)[C@@H](CN(C)S(=O)(=O)c2ccccc2F)Oc2ncc(C#Cc3ccncc3)cc2C1=O`, the relative growth is reported as inactive: 0.995. For `CS(=O)(=O)CCNCc1ccc(-c2ccc3ncnc(Nc4ccc(OCc5cccc(F)c5)c(Cl)c4)c3c2)o1`, the relative growth was inactive: 0.937. For `C[C@@]1(C(=O)O)CCCC[C@@H]1N`, the relative growth was inactive: 1.02. For `O=C(Nc1nnc2n1CCS2)C1CC1`, the relative growth was inactive: 1.05. For `Cc1ccc2nccc(C(=O)N3CCC[C@@H](Cn4cc(C(C)(C)N)nn4)C3)c2c1`, the relative growth was inactive: 1. `CC(=O)N1[C@H](CO)[C@@H](c2ccccc2)C12CN(C(=O)CN1CCOCC1)C2` was tested, and the relative growth was inactive: 0.949. With `Cc1ccc(S(=O)(=O)N2C[C@H](O)COC[C@@H]3O[C@H](CC(=O)NCCCN(C)C)CC[C@H]32)cc1` the relative growth was inactive: 1.01. `NNC(=O)CCc1ccccc1` was tested, and the relative growth was inactive: 1.01. For `O=C(C[C@@H]1C[C@@H]2c3cc(NC(=O)NC4CCCC4)ccc3O[C@@H]2[C@H](CO)O1)NCc1ccc2c(c1)OCO2`, the relative growth was inactive: 0.975. `COc1cccc(S(=O)(=O)N(C)C[C@H]2Oc3cc(Br)ccc3S(=O)(=O)N([C@@H](C)CO)C[C@H]2C)c1` was tested, and the relative growth was inactive: 0.986. With `O=C(CN1CCOCC1)N/N=C/c1ccc([N+](=O)[O-])o1` the relative growth was inactive: 0.801. In the case of `CS(=O)(=O)NCc1ncn2c1CN(C(=O)[C@H]1CCCO1)CCC2`, the relative growth is reported as inactive: 0.991. In the case of `C[C@H]1CN([C@@H](C)CO)C(=O)Cc2cc(NC(=O)Cn3cnnn3)ccc2O[C@H]1CN(C)Cc1ccc(C(F)(F)F)cc1`, the relative growth is reported as inactive: 1.02. In the case of `Cc1noc(C)c1S(=O)(=O)Nc1ccc2c(c1)C(=O)N([C@@H](C)CO)C[C@H](C)[C@@H](CN(C)C(=O)NC(C)C)O2`, the relative growth is reported as inactive: 0.974. `COc1ccc(NC(=O)N2C[C@H](O)COC[C@H]3O[C@H](CC(=O)NCc4ccccc4OC)CC[C@@H]32)cc1` was tested, and the relative growth was inactive: 1. In the case of `Cc1noc(C)c1S(=O)(=O)Nc1ccc2c(c1)C(=O)N([C@@H](C)CO)C[C@H](C)[C@H](CN(C)S(=O)(=O)c1c(C)noc1C)O2`, the relative growth is reported as inactive: 1.02. For `CCOC(=O)N(C)C[C@H]1OCc2cnnn2CCCC(=O)N([C@@H](C)CO)C[C@@H]1C`, the relative growth was inactive: 0.998. For `C[C@@H]1CN([C@@H](C)CO)C(=O)Cc2cc(NS(=O)(=O)c3cccs3)ccc2O[C@H]1CN(C)Cc1ccc(Cl)c(Cl)c1`, the relative growth was inactive: 0.999. `C[C@@H]1CCCCO[C@H](CN(C)C(=O)Cc2ccccc2)[C@@H](C)CN([C@H](C)CO)C(=O)c2cc(NC(=O)Nc3ccc(F)cc3)ccc2O1` was tested, and the relative growth was inactive: 0.974. `C[C@H](CO)N1C[C@H](C)[C@H](CN(C)S(=O)(=O)c2ccccc2)Oc2c(NS(C)(=O)=O)cccc2C1=O` was tested, and the relative growth was inactive: 0.974. `COc1ccc(S(=O)(=O)Nc2ccc3c(c2)C(=O)N([C@H](C)CO)C[C@H](C)[C@H](CN(C)S(=O)(=O)c2cn(C)cn2)O3)cc1` was tested, and the relative growth was inactive: 1.02. With `C[C@@H]1CCCCO[C@@H](CN(C)C(=O)CCC(F)(F)F)[C@H](C)CN([C@@H](C)CO)C(=O)c2cc(NC(=O)NC3CCCCC3)ccc2O1` the relative growth was inactive: 0.99. With `Cc1noc(C)c1NC(=O)N(C)C[C@H]1OCCCC[C@@H](C)Oc2ccc(NC(=O)Nc3ccc(C(F)(F)F)cc3)cc2C(=O)N([C@H](C)CO)C[C@@H]1C` the relative growth was inactive: 1. In the case of `C[C@H](CO)N1C[C@H](C)[C@H](CN(C)C(=O)Nc2cccc(Cl)c2Cl)OCc2ccccc2-c2c(n(C)c3ccccc23)C1=O`, the relative growth is reported as inactive: 0.985. With `COc1ccc2c3c(n(c2c1)C)[C@@H](CO)N(C[C@]13CN(C1)C(=O)c1ccncc1)C(=O)C1CCCCC1` the relative growth was inactive: 0.988. For `Cc1noc(C)c1S(=O)(=O)Nc1cccc2c1O[C@@H](CN(C)Cc1ccncc1)[C@@H](C)CN([C@@H](C)CO)C2=O`, the relative growth was inactive: 1.02. For `C[C@H]1CN([C@@H](C)CO)C(=O)c2cccc(NC(=O)Nc3ccc(C(F)(F)F)cc3)c2O[C@@H]1CN(C)CC1CCCCC1`, the relative growth was inactive: 0.834. `C[C@@H]1CCCCO[C@@H](CN(C)C(=O)Nc2ccc(C(F)(F)F)cc2)[C@@H](C)CN([C@H](C)CO)C(=O)c2cc(NS(=O)(=O)c3cccs3)ccc2O1` was tested, and the relative growth was inactive: 1. In the case of `O=C(C[C@H]1CC[C@H]2[C@@H](COC[C@@H](O)CN2C(=O)Nc2cc(Cl)cc(Cl)c2)O1)N1CCOCC1`, the relative growth is reported as inactive: 0.967. For `CCCCC(=O)C1CCCC=C1C(=O)O` (configuration not stated), the relative growth was inactive: 1.04. With `C[C@@H]1CN([C@H](C)CO)C(=O)Cc2cc(NC(=O)C3CCCCC3)ccc2O[C@H]1CN(C)S(C)(=O)=O` the relative growth was inactive: 1. `COc1ccc(NC(=O)Nc2ccc3c(c2)C(=O)N([C@@H](C)CO)C[C@H](C)[C@@H](CN(C)Cc2ccc(-c4ccccc4)cc2)O3)cc1` was tested, and the relative growth was inactive: 1.02. In the case of `COc1ccc(S(=O)(=O)N(C)C[C@H]2Oc3ccc(NS(=O)(=O)c4ccccc4)cc3CC(=O)N([C@H](C)CO)C[C@H]2C)cc1`, the relative growth is reported as inactive: 0.994. For `COc1ccc(NC(=O)N(C)C[C@H]2OCCCC[C@H](C)Oc3ccc(NC(=O)Nc4c(C)noc4C)cc3C(=O)N([C@@H](C)CO)C[C@@H]2C)cc1`, the relative growth was inactive: 0.98. In the case of `Cn1c(=O)[nH]c2nnc(-c3ccccn3)nc2c1=O`, the relative growth is reported as inactive: 0.816. For `CNCC(O)c1ccc(O)c(O)c1.O=C(O)C(O)C(O)C(=O)O` (configuration not stated), the relative growth was inactive: 1.17.
